Measurements taken from PubChem BioAssay AID686979 (National Center for Advancing Translational Sciences (NCATS), 2013).
Hit rate of the full screen: of about 420,000 compounds, about 50,000 (12%) were called active. Inconclusive results, whose numbers are uncertain, are shown with a selection of clear calls. The call rests on the fitted dose curve; in most records, active means well fitted inhibition curve with a large enough effect; inconclusive means small, poorly fitted or top-dose-only effect; inactive means flat fitted curve, though single readings scatter. Potencies of inconclusive entries are left out as doubtful fits.

Assay: qHTS for Inhibitors of human tyrosyl-DNA phosphodiesterase 1 (TDP1): qHTS in cells in presence of CPT; further: nearly all actives have a fitted effect of over 55% in size
Conditions: chicken DT40 Tdp1-/-;hTDP1 cells + 20 nM CPT, ATP luminescence, 48 h; activity change, negative = growth inhibition: at 46.2 µM (top of the series) unless noted
Method in brief: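 Cell growth measured by CellTiter-Glo luminescence after a minimum 48 h, 37 C compound exposure with 20 nM CPT in Tdp1-knockout DT40 cells stably expressing hTDP1, seeded 400/well; qHTS titration format.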
On the % scale 0 is the no-effect control and ±100 the full control effect; potency means the concentration at half of the fitted maximal effect; tags describe the fitted curve by direction and shape.

Structure (SMILES) | Potency | activity change, negative = growth inhibition
Cc1ccccc1NC(=O)c1ccc2c(O)c(S(=O)(=O)c3ccccc3)c(=O)[nH]c2c1 | inactive | –
COc1ccc(/C=C/C(=O)NC(=S)NN2CCCCC2c2cccnc2)cc1OC (stereo not drawn) | – | inactive: -0.0844%
Cc1ccc2c(c1)N(C(=O)CCC(=O)NCc1cccc(Cl)c1)CC(C)O2 (stereo not drawn) | inconclusive [inhibitor, single point] | –
CCOC(=O)N1CCC(NC(=O)c2cnn(-c3ccc(F)cc3F)c2C2CCN(C(=O)OC(C)(C)C)CC2)CC1 | – | inactive: 5.17%
O=C(Nc1ccc2nn(-c3ccccc3)nc2c1)c1cccs1 | – | inactive: -15.5%
Cc1cc(C)cc(Nc2cc(C(=O)NC3CCC(C)CC3)c3ccccc3n2)c1 (stereo not drawn) | inconclusive [inhibitor, full curve, poor fit] | –
CC(C)(C)c1cnnn1-c1ccc(/C=N/Nc2ccc([N+](=O)[O-])cc2)cc1 | active: 18.4 µM | –
Cc1nnc(SCC(=O)N2CCCC(C(=O)c3ccc(Cl)cc3)C2)o1 (stereo not drawn) | – | inactive: 5.43%
O=C(CSc1ncnc2sccc12)N1CCCCC1 | – | inactive: 2.28%
O=C(OCc1c(-c2ccccc2)ncc2ccccc12)c1cccc(Br)c1 | – | inactive: -15.3%
CC(=O)OC(COc1cccc(C)c1)Cn1cnc2ccccc21 (stereo not drawn) | inconclusive [inhibitor, single point] | –
COc1ccc(Cl)cc1-c1cc(C(=O)NCc2ccc(F)cc2)[nH]n1 | active: 6.51 µM | –
O=C(Cc1ccc2c(c1)OCCO2)Nc1cc(Cl)ccc1N1CCOCC1 | active: 16.4 µM | –
COc1ccc(CCNC(=O)c2c(C)oc3ncnc(N4CCOCC4)c23)c(OC)c1 | – | inactive: 2.72%
Cc1ccc(S(=O)(=O)N(C)CC(=O)NCCCn2ccnc2)cc1 | – | inactive: 0.134%
Cc1ccc(S(=O)(=O)NCC(c2ccc3c(c2)OCO3)N2CCN(c3ccccc3)CC2)cc1 (stereo not drawn) | inconclusive [inhibitor, single point] | –
C=CCn1c(SCC(=O)Nc2cccc(S(N)(=O)=O)c2)nc2sc(C)c(C)c2c1=O | inconclusive [inhibitor, single point] | –
CCC(=O)NC(c1ccccc1Cl)c1c(O)ccc2ccccc12 (stereo not drawn) | active: 16.4 µM | –
COC(=O)c1ccc(-n2c(C)cc(/C=N/Nc3nc(C)cc(=O)[nH]3)c2C)cc1 | active: 14.6 µM | –
C[C@@]12C(=O)N(c3cccc(Br)c3)C(=O)N1[C@H](c1ccc(Cl)cc1)[C@@H]1C(=O)N(C3CCCCC3)C(=O)[C@@H]12 | inconclusive [inhibitor, single point] | –
COc1ccc(OC)c(NC(=O)c2ccc(OCC(=O)N3CCOCC3)c(OC)c2)c1 | – | inactive: -29.3%
CC(C)(C)NCC(O)COc1ccccc1C(C)(C)C (stereo not drawn) | inconclusive [inhibitor, partial curve, poor fit] | –
CN(Cc1ccc(F)cc1)S(=O)(=O)c1nnc(NC(=O)c2ccccc2Cl)s1 | inconclusive [inhibitor, single point] | –
Cn1nnnc1SCCCNCc1ccc(-c2ccc(F)c(Cl)c2)o1 | inconclusive [inhibitor, single point] | –
CCc1nc(-c2cc(S(=O)(=O)N3CCN(c4ccccc4F)CC3)ccc2OC)no1 | inconclusive [inhibitor, single point] | –

Structure (SMILES) | Potency | activity change, negative = growth inhibition
Cc1nc(N)nc(N(C)c2ccccc2)c1Br | inconclusive [inhibitor, single point] | –
COc1cc(NC(=O)Nc2cccc3cccnc23)cc(OC)c1OC | inconclusive [inhibitor, single point] | –
NC1=C([N+](=O)[O-])C(c2ccc3c(c2)OCO3)C2=C(CCCC2=O)O1 (stereo not drawn) | inconclusive [inhibitor, partial curve] | –
COc1ccccc1OCCCC(=O)Nc1ccc([N+](=O)[O-])cc1Br | – | inactive: 7.09%
COc1cccc(/C=N/n2c(C)nc3ccccc32)c1OC | inconclusive [inhibitor, partial curve] | –
O=C(COc1ccc2ccccc2c1)Nc1ccncc1 | inconclusive [inhibitor, partial curve] | –
Cc1c(C(=O)N2CCC(N3CCSCC3)CC2)oc2c(F)cccc12 | inconclusive [inhibitor, single point] | –
COc1ccc(CN2CCCC(c3nc(-c4ccncc4)ncc3-c3ccccc3C)C2)c(OC)c1 (stereo not drawn) | active: 2.59 µM | –
Cc1csc(-c2nc3ccccc3n2C)n1 | inconclusive [inhibitor, partial curve, poor fit] | –
COc1ccc(S(=O)(=O)N2CCc3cc(OC)c(OC)cc3C2)cc1 | inconclusive [inhibitor, partial curve, poor fit] | –
Cc1ccc(O)c(C2=Nc3ccccc3N=C(c3cccs3)C2)c1 | inconclusive [inhibitor, single point] | –
CCC(=O)N1CCN(c2ccc(Cl)cc2NC(=O)c2ccc([N+](=O)[O-])o2)CC1 | active: 18.4 µM | –
O=C(NCCc1ccccc1)c1ccc(CS(=O)(=O)Cc2ccccc2Cl)o1 | inconclusive [inhibitor, single point] | –
COc1ccccc1C(=O)Nc1ccc(C)c(S(=O)(=O)N2CCCCC2)c1 | active: 20.6 µM | –
CC1(C(=O)Nc2cccc(C#N)c2)CCN1C(=O)c1ccccc1CCc1ccccc1 (stereo not drawn) | inconclusive [inhibitor, single point] | –
CCCNC(=O)c1cc(C2CCCN(S(=O)(=O)c3cccs3)C2)on1 (stereo not drawn) | inconclusive [inhibitor, single point] | –
Cc1cc(=O)n2nc(N3CCCC(C(=O)NCCC4=CCCCC4)C3)sc2n1 (stereo not drawn) | inconclusive [inhibitor, single point] | –
COc1ccc(CCC(=O)NCCS(=O)(=O)N2CCN(c3ccc(OC)cc3)CC2)cc1 | inconclusive [inhibitor, partial curve, poor fit] | –
Cc1nc(-c2ccc(F)cc2)c(CC(=O)NCC(=O)Nc2ccc(F)c(F)c2)s1 | inconclusive [inhibitor, single point] | –
O=C(COC(=O)c1cccc(NC(=O)c2ccco2)c1)c1ccc(Br)cc1 | inconclusive [inhibitor, single point] | –
Cc1cc(C)cc(NS(=O)(=O)c2ccc(N3CCCCS3(=O)=O)cc2)c1 | active: 11.6 µM | –
C=COCCn1c(-c2nonc2N)nc2ccccc21 | inconclusive [inhibitor, single point] | –
CCCN(CC(=O)Nc1ccccc1C)C(=O)c1cccc(S(=O)(=O)N2CCc3ccccc3C2)c1 | inconclusive [inhibitor, single point] | –
CC(=O)c1ccc(NC(=O)Nc2ccc(Br)cc2C)cc1 | – | inactive: 4.49%
Cc1cc(C)nc(Nc2ncc(O)n2-c2ccc(C)c(C)c2)n1 | – | inactive: 2.17%

Structure (SMILES) | Potency | activity change, negative = growth inhibition
CCc1nnc(NC(=O)c2ccc(S(=O)(=O)N(C)c3ccccc3)cc2)o1 | active: 11.6 µM | –
CC1Oc2ccccc2C=C1/C=C1/SC(N2CCOCC2)=NC1=O (stereo not drawn) | inconclusive [inhibitor, single point] | –
O=S(=O)(/N=C(/Sc1ccccc1)c1ccccc1)c1ccccc1 | active: 8.2 µM | –
COc1ccc(NC(=O)C/C(C)=N/NC(=O)C(=O)NC2CCCCC2)c(OC)c1 | – | inactive: 0.429%
O=C(CN(Cc1ccc(F)cc1)C(=O)CCC(=O)Nc1nccs1)NCc1ccccc1 | – | inactive: 4.54%
CCCn1c(CNC(=O)c2cccs2)nc2ccccc21 | – | inactive: -4.78%
O=C(NCc1nc(-c2ccc(Cl)cc2)no1)c1ccc2c(c1)OCO2 | – | inactive: -4.36%
COc1ccc([C@H]2N[C@]3(CCCN(CC4CCCCC4)C3=O)[C@H]3C(=O)N(Cc4ccccc4)C(=O)[C@@H]23)cc1 | inconclusive [inhibitor, single point] | –
O=c1c(N2CCc3ccccc3C2)csc2ccc(Cl)cc12 | inconclusive [inhibitor, single point] | –
O=C(NCc1ccc(F)cc1)c1cccc2c1C(=O)c1ccc(N3CCC(N4CCCCC4)CC3)cc1S2(=O)=O | inconclusive [inhibitor, single point] | –
Nc1ccc(-c2nc3c(Cl)c(N)ccc3[nH]2)cc1 | inconclusive [inhibitor, single point] | –
COC(=O)COc1cccc2c(=O)n(CC(=O)NCc3ccc(F)cc3)ccc12 | active: 1.03 µM | –
COc1ccc(/C=C/C(=O)Nc2sc(C)c(C)c2C(=O)O)cc1 | – | inactive: -4.8%
CCOc1cc(CN2CCN(S(=O)(=O)c3ccc(C)cc3)CC2)ccc1OC | inconclusive [inhibitor, single point] | –
COc1ccc2oc(=N)c(C(=O)Nc3ccc(Cl)cc3)cc2c1 | – | inactive: -7.78%
CC(C)c1cnc2c(c1SCC(=O)N1CCCCC1)c(=O)n(C)c(=O)n2C | active: 23.1 µM | –
O=C(c1cccs1)c1ccccc1Cc1cccs1 | inconclusive [inhibitor, single point] | –
CCOC(=O)c1ccc(NC(=O)c2ccccc2[N+](=O)[O-])cc1 | – | inactive: -7.23%
COc1ccc(C(=O)N2CCN(c3ccc(C(C)=O)cc3)CC2)cc1S(=O)(=O)N1CCCC1 | – | inactive: -7.02%
Cc1nc2ccccc2c2c(N)cccc12 | – | inactive: 14.1%
Cc1cccc(N2CCN(C(=O)C(Cc3ccccc3)NC(N)=O)CC2)c1C (stereo not drawn) | – | inactive: -29.1%
COCCCn1c(Cc2csc(Nc3cccc(Cl)c3)n2)nnc1SCC(=O)OC | – | inactive: -23.6%
O=S(=O)(c1ccc2nc(-c3ccco3)c(-c3ccco3)nc2c1)N1CCOCC1 | inconclusive [inhibitor, single point] | –
